Reference: PubChem BioAssay AID686979 (National Center for Advancing Translational Sciences (NCATS), 2013)
In all, about 420,000 compounds went through this assay and about 50,000 (12%) were called active. Inconclusive results, whose numbers are uncertain, are shown with a selection of clear calls. Calls follow the shape of the dose curve; as a rule, active = well fitted inhibition curve with a large enough effect; inconclusive = small, poorly fitted or top-dose-only effect; inactive = flat fitted curve, though single readings scatter. No potency is given beside an inconclusive call; the fits are too rough. *1 amine or outer side, *2 acyl side, *3 side chain or, on linkers, in order; H or OH if unused. Where a SMILES comes first, the peptide text is derived from it. [ ]: non-standard residue; d: D form. X2 = CCC[C@@H](N[*:1])[C@H](C)C(=O)O[C@H](C(=O)[*:2])[C@@H](C)CC; X1 = CC(N[*:1])C(=O)C(C)(C)C(=O)[*:2]; NMeY = CN[C@@H](Cc1ccc(O)cc1)C(=O)O; NMeL = CN[C@@H](CC(C)C)C(=O)O; NMeV = CN[C@H](C(=O)O)C(C)C; NMeA = CN[C@@H](C)C(=O)O

Assay: qHTS for Inhibitors of human tyrosyl-DNA phosphodiesterase 1 (TDP1): qHTS in cells in presence of CPT; also: nearly all actives have a fitted effect of over 55% in size
Details: chicken DT40 Tdp1-/-;hTDP1 cells + 20 nM CPT, ATP luminescence, 48 h; activity change, negative = growth inhibition: at 46.2 µM (top of the series) unless noted
In short: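 Chicken DT40 Tdp1-/- cells complemented with human TDP1, 400 cells/well, exposed to compounds plus 20 nM camptothecin for at least 48 h at 37 C; viability read as ATP content by CellTiter-Glo luminescence.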
% is scaled to controls: 0 for no effect and ±100 for the full control effect; potency is read from the fitted curve at half-maximal effect; tags tell the direction and shape of the fitted curve.

| Structure (SMILES) | Potency | activity change, negative = growth inhibition |
| --- | --- | --- |
| COc1cc(C(=O)NCc2nnc(SCC(=O)Nc3nc4ccc(C)cc4s3)o2)cc(OC)c1OC | active: 4.11 µM | – |
| O=C1CC(=O)N(C2CCCCC2)C(=O)N1c1ccccc1S(=O)(=O)Oc1ccccc1 | inactive | – |
| COc1cc(Br)cc(/C=C/c2ccc3cccc(O)c3n2)c1O | active: 14.6 µM | – |
| O=C(NCCn1cccn1)C1CCC(=O)N(CCc2ccc(Cl)cc2)C1 (stereo not given) | inactive | – |
| Cn1cnc(S(=O)(=O)NC2CCN(Cc3c(F)cccc3Cl)CC2)c1 | inactive | – |
| CCCCOc1ccc(/C=N/NC(=S)Nc2cccc(C)c2C)cc1 | inconclusive [inhibitor, single point] | – |
| COc1cc(/C=N\NC(=O)OC(C)(C)C)ccc1OC(=O)c1ccco1 | inactive | – |
| O=[N+]([O-])c1ccc(NC(=S)NCCc2ccc(F)cc2)cc1 | active: 16.4 µM | – |
| Cc1ccc(-c2cc(C(=O)O)c3sc(N4CCCCC4)nc3n2)cc1 | inactive | – |
| O=C1CCCC(O)=C1Sc1cc(Cl)c(Cl)cc1Cl | inconclusive [inhibitor, single point] | – |
| CS(=O)(=O)N1CCN(c2ccccc2NC(=O)CSc2ccc(Cl)cc2)CC1 | inconclusive [inhibitor, single point] | – |
| Cc1cc(Br)ccc1OCCNCc1ccccc1 | inconclusive [inhibitor, single point] | – |
| COc1ccccc1NC(=O)C(C)OC(=O)c1cc2ccccc2[nH]1 (stereo not given) | inconclusive [inhibitor, single point] | – |
| Cc1cc(O)c(C)c(O)c1/C=N/NC(=O)c1cccnc1 | inconclusive [inhibitor, single point] | – |
| CCCN1Cc2cccc(C(N)=O)c2C1=O | active: 8.2 µM | – |
| CCCn1c(SCC(=O)N2CCc3ccccc3C2)nc2c1c(=O)n(C)c(=O)n2C | inconclusive [inhibitor, single point] | – |
| O=C(CCn1c(=S)oc2ccccc21)Nc1cccc(O)c1 | inactive | – |
| CCN1C(=O)[C@H]2[C@@H](c3ccc(C)cc3)N[C@]3(CCCN(Cc4ccc(F)cc4)C3=O)[C@H]2C1=O | inconclusive [inhibitor, single point] | – |
| Cc1cc(NC(=O)CCc2ccccc2)c([N+](=O)[O-])cc1C | inactive | – |
| CCN1CCN(C(=S)Nc2ccccc2Cl)CC1 | active: 11.2 µM | – |
| CCc1ccc(CN2CCC(C(=O)Nc3ccc(Oc4ccccc4)nc3)CC2)o1 | active: 16.4 µM | – |
| CCCn1cnnc1CNC(=O)[C@H]1O[C@@H](n2ccc(N)nc2=O)[C@H](O)[C@@H]1O | inactive | – |
| O=C(Nc1cccnc1)C1CC(c2ccccc2O)=NO1 (stereo not given) | inactive | – |
| Cc1ccc(NC(=O)CN2C(=O)COc3ccc(S(=O)(=O)N4CCOCC4)cc32)c(Cl)c1 | inconclusive [inhibitor, single point] | – |

| Structure (SMILES) | Potency | activity change, negative = growth inhibition |
| --- | --- | --- |
| CC(C)(C)c1ccc(S(=O)(=O)N2CCC(c3ccncc3)CC2)cc1 | active: 13 µM | – |
| CCOc1ccc(NC(=O)Cn2c(=O)n(Cc3ccccc3)c(=O)c3c4c(sc32)CN(C(C)=O)CC4)cc1 | inconclusive [inhibitor, single point] | – |
| Cc1nc(SCCOc2ccc(Cl)cc2)[nH]c(=O)c1Cc1ccccc1 | inconclusive [inhibitor, single point] | – |
| O=C(O)c1cc2c(cc1NC(=O)C1CCCC1)OCCO2 | inactive | – |
| COc1cccc(-n2cc(C(=O)Nc3ccccc3C(N)=O)c3ccccc3c2=O)c1 | inconclusive [inhibitor, single point] | – |
| Cc1cc(C)c(CNC(=O)c2cc(C3CC3)nc3c2cnn3C(C)C)c(=O)[nH]1 | inconclusive [inhibitor, single point] | – |
| Cc1ccccc1NCC(=O)c1ccc(Br)cc1 | inconclusive [inhibitor, single point] | – |
| COc1ccc(CCN2C(=O)CS/C2=N\NC(=O)c2cccs2)cc1OC | inconclusive [inhibitor, single point] | – |
| Cc1cc2cc(CCNS(=O)(=O)c3ccc(F)cc3)c(=O)[nH]c2cc1C | inconclusive [inhibitor, single point] | – |
| CC1=CC(C)(C)n2c(O)c(N=NC(N)=S)c3cc(C)cc1c32 | inactive | – |
| Cc1ccc2c(=O)[nH]c(Cc3ccccc3C(=O)O)nc2c1 | inconclusive [inhibitor, partial curve] | – |
| Cc1ccc(NC(=O)c2ccnc(C(C)(C)C)c2)cc1 | inconclusive [inhibitor, single point] | – |
| O=C(CNC(=O)c1ccccc1)N/N=C/c1ccc([N+](=O)[O-])s1 | inconclusive [inhibitor, single point] | – |
| O=C(NNc1nc(-c2ccccc2)cs1)c1ccccc1 | inconclusive [inhibitor, single point] | – |
| Cc1ccccc1CNC(=O)Cn1cc2c(n1)-c1c(oc(C(=O)N3CCCC3)c1C)CC2 | inconclusive [inhibitor, single point] | – |
| C[C@H](NC(=O)c1ccco1)C(=O)Nc1ccc(C#N)cc1 | inactive | – |
| CN(C)c1nc(-c2ccccc2)cc(C(F)(F)F)c1C#N | inactive | – |
| CC(=O)c1cc(CC(=O)N2CCc3c([nH]c4ccccc34)C2c2ccccn2)cs1 (stereo not given) | inconclusive [inhibitor, single point] | – |
| CC(C)NC(=O)c1onc(CSc2cccc(F)c2)c1C(=O)O | inactive | – |
| CC1CC(C)CN(C(=O)c2cn(C)c3ccc(S(=O)(=O)N(C)C)cc3c2=O)C1 (stereo not given) | inactive | – |
| Cc1cccc(C(=O)Nc2sc3c(c2C(=O)O)CCCC3)c1 | active: 16.4 µM | – |
| Cc1ccc(NC(=S)N(CCN(C)C)Cc2cc3cc(C)ccc3[nH]c2=O)cc1 | inconclusive [inhibitor, single point] | – |
| C/C=C/c1ccc2c(c1)O[C@@H](CN(C)C(=O)c1ccc(F)cc1)[C@@H](C)CN([C@H](C)CO)S2(=O)=O | inconclusive [inhibitor, single point] | – |
| C/C(=N\NC(=O)Cn1cnc2ccccc21)c1cccs1 | inactive | – |

| Structure (SMILES) | Potency | activity change, negative = growth inhibition |
| --- | --- | --- |
| OC(COc1ccc(F)cc1Cl)CN1CCc2ccccc2C1 (stereo not given) | active: 20.6 µM | – |
| CCOC(=O)c1c(-c2ccc(N(C)C)cc2)oc2c1C(OC)CC2 (stereo not given) | inconclusive [inhibitor, single point] | – |
| CCOc1cc(/C=C2\SC(=O)N=C2N)ccc1O | inconclusive [inhibitor, single point] | – |
| CC(=O)c1c(C)oc2ccc(N(C(=O)c3ccncc3)S(=O)(=O)c3ccc(F)cc3C)cc12 | active: 10.3 µM | – |
| Cc1ccccc1NC(=S)NCCSc1ccc(Cl)cc1 | inconclusive [inhibitor, partial curve] | – |
| COc1ccc(N(CC(=O)N2CCN(c3ccc(F)cc3)CC2)S(=O)(=O)c2c(C)nn(C)c2C)cc1 | inconclusive [inhibitor, single point] | – |
| COc1cc(NC(=O)CN2CCN(C(=O)c3ccco3)CC2)c(C)cc1[N+](=O)[O-] | inactive | – |
| O=C(CS(=O)(=O)c1cn(Cc2ccc(Cl)cc2)c2ccccc12)N1CCCCC1 | inconclusive [inhibitor, single point] | – |
| COc1cc(Br)cc(/C=N/NC(=O)Cc2ccc(C(F)(F)F)cc2[N+](=O)[O-])c1O | active: 1.84 µM | – |
| CCC[C@H]1NC(=O)[C@H](C)N(C)C(=O)C(C)(C)C(=O)C(C)NC(=O)[C@H](Cc2ccc(OC)cc2)N(C)C(=O)[C@H](C(C)C)N(C)C(=O)CNC(=O)[C@H](CC(C)C)N(C)C(=O)CNC(=O)[C@H]([C@@H](C)CC)OC(=O)[C@H]1C (stereo not given in full) (cyclo(G[NMeL]G[NMeV][NMeY](Me)[X1][NMeA][X2])) | active: 0.0326 µM | – |
| Cc1ccc(S(=O)(=O)C(C#N)c2nc3ccccc3nc2N2CC(C)OC(C)C2)cc1C (stereo not given) | inconclusive [inhibitor, single point] | – |
| O=C(Nc1ccc2c(c1)OCCO2)C(c1ccccc1)n1c(=O)c(-c2cc3ccccc3[nH]2)nc2ccccc21 (stereo not given) | inconclusive [inhibitor, single point] | – |
| COc1cc(NC(=O)c2cccs2)c(OC)cc1NC(=O)Nc1ccc(F)cc1 | inconclusive [inhibitor, single point] | – |
| O=C(Nc1ccc(Br)cc1)C1CCCN(S(=O)(=O)c2cccnc2)C1 (stereo not given) | active: 23.1 µM | – |
| Cc1ccc2c(c1)C/C(=C/c1ccc(N(C)C)cc1)C2=O | inconclusive [inhibitor, single point] | – |
| Cc1c(Cl)cccc1NC(=O)Cn1c(-c2ccc(F)cc2)noc1=O | – | inconclusive: -35.5% [inhibitor] |
| COc1ccc(C)cc1NC(=O)CSc1nc2ccccc2nc1N1CC(C)OC(C)C1 (stereo not given) | active: 23.1 µM | – |
| CC(C)(C)OC(=O)[C@H](CCCCN)NC(=O)c1nc[nH]c1C(=O)N[C@@H](CCCCN)C(=O)OC(C)(C)C | inactive | – |
| COc1ccc(CNC(=O)c2ccc(-c3c(C)noc3C)c3ccoc23)cc1OC | inconclusive [inhibitor, single point] | – |
| CCOC(=O)N1CCC(N2C(=O)c3ccccc3C2Nc2c(C)cccc2C)CC1 (stereo not given) | inconclusive [inhibitor, single point] | – |
| COc1cccc(CNC(=O)c2cccc(NC(=O)c3nsc4ccccc34)c2)c1 | inconclusive [inhibitor, single point] | – |
| CCCNC(=O)C1(C)CCCN(C(=O)c2cccc(OC(F)(F)F)c2)C1 (stereo not given) | inactive | – |
